The whole screen tested about 310,000 compounds, of which about 2,200 (0.71%) showed an effect of 50% or more. The effect is printed as a negative number. Some of the results follow.

For this test, the target named is human ether-à-go-go-related gene (hERG) potassium channel (human, UniProt Q12809). Briefly: primary screen, population patch clamp on CHO cells stably expressing hERG.
Sequence of human ether-à-go-go-related gene (hERG) potassium channel (Q12809 whole entry, looked up): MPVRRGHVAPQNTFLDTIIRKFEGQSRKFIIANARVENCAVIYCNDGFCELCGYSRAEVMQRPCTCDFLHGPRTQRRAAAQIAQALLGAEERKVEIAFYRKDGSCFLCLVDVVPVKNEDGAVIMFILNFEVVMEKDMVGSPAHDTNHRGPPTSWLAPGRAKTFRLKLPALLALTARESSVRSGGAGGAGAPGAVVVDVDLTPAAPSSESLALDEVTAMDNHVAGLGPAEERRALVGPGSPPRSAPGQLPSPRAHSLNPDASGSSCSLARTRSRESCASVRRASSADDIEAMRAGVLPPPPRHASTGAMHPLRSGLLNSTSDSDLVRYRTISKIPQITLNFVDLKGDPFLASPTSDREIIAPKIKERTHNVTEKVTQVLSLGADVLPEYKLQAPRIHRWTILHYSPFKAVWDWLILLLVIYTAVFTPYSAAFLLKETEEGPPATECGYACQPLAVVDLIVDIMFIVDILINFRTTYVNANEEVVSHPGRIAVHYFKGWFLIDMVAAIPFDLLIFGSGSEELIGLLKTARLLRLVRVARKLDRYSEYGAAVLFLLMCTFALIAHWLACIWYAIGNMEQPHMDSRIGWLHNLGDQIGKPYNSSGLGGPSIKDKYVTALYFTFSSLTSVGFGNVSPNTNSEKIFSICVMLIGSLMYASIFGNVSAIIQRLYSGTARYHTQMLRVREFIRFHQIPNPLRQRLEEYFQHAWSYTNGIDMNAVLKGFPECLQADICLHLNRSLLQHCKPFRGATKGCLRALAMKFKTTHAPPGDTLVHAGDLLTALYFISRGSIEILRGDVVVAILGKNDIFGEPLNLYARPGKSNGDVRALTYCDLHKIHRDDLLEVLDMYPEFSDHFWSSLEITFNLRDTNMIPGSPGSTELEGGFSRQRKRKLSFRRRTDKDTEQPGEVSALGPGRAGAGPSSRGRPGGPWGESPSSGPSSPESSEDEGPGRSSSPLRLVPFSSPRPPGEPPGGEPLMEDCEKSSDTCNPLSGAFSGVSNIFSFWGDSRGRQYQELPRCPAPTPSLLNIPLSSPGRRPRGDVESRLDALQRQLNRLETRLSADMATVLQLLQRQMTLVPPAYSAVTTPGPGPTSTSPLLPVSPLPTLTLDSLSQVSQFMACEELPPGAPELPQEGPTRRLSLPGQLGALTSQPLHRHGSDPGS
`CCOC(=O)N1CCN(c2cc(N3CCN(CC)CC3)c(F)cc2[N+](=O)[O-])CC1C` (stereo not shown): the “hERG current change (%, negative = inhibition) at 1uM” value is listed as -16%.

For the compound `CC(C)CC(=O)Nc1nnc(S(=O)(=O)Nc2ccccc2)s1`, the “hERG current change (%, negative = inhibition) at 1uM” value came to 12.5%.

Regarding `Cc1ncsc1CCOC(=O)c1cccc([N+](=O)[O-])c1.Cl`, the “hERG current change (%, negative = inhibition) at 1uM” value was found to be 3.28%.

As for `CCCC(=O)Nc1c2c(nn1-c1ccc(OC)cc1)CS(=O)(=O)C2`, the “hERG current change (%, negative = inhibition) at 1uM” value is recorded as 4.26%.

As to `O=C(c1ccc(Cl)cc1)c1c[nH]cc1-c1ccccc1`, the “hERG current change (%, negative = inhibition) at 1uM” value was 14.2%.

Consider `CCC(Sc1nc2n[nH]c(C)c2c(=N)n1-c1cc(Cl)ccc1C)C(=O)N1CCOCC1` (stereo not shown), for which the “hERG current change (%, negative = inhibition) at 1uM” value was 4.51%.

For the compound `Cc1c(Br)ccc(NC(=O)CCN2C(=O)C3C4CCC(C4)C3C2=O)c1C` (stereo not shown), the “hERG current change (%, negative = inhibition) at 1uM” value stood at 9.93%.

Regarding `Cc1ccc(CNc2nc(C)cs2)cc1`, the “hERG current change (%, negative = inhibition) at 1uM” value is listed as 8.56%.

As to `Cc1ccc(S(=O)(=O)N2CCN=C2c2ccccc2)cc1C`, the “hERG current change (%, negative = inhibition) at 1uM” value is listed as 8.69%.

On to `CC(C)(C)N1C(=O)[C@H]2[C@@H](c3ccc(Br)cc3)N3C(=O)N(c4ccccc4)C(=O)[C@@]3(C)[C@H]2C1=O`, for which the “hERG current change (%, negative = inhibition) at 1uM” value is given as 2.45%.

Regarding `Cc1ccccc1NC(=O)c1ccc(Cn2cc([N+](=O)[O-])cn2)o1`, the “hERG current change (%, negative = inhibition) at 1uM” value was 4.9%.

For the compound `CC[n+]1c(/C=C/N(C)c2ccccc2)n(-c2ccccc2)c2ccc(-c3nc4ccccc4s3)cc21.[I-]`, the “hERG current change (%, negative = inhibition) at 1uM” value was -29.9%.

On to `COc1ccc(C(C(=O)NC(C)(C)C)N(Cc2ccc(C)cc2)C(=O)CCC(=O)Nc2cc(C)on2)cc1` (stereo not shown), for which the “hERG current change (%, negative = inhibition) at 1uM” value is -6%.

Regarding `CC(C)N(C)CCOC(=O)c1ccc2c(c1)OCCO2.Cl`, the “hERG current change (%, negative = inhibition) at 1uM” value was 2.41%.

As to `CC(Oc1ccccc1)C(=O)N1CCN=C1SCc1ccccc1F` (stereo not shown), the “hERG current change (%, negative = inhibition) at 1uM” value is 4.47%.

Turning to `Br.CCOC(=O)CN=C1CC(C)(C)CC2=C1Sc1ncnc(N(C)C)c1N2`, the “hERG current change (%, negative = inhibition) at 1uM” value is -8.01%.

For `COc1ccc(N2CCN(CCN3C(=O)c4ccccc4C3=O)CC2)cc1`, the “hERG current change (%, negative = inhibition) at 1uM” value is given as 15.7%.

As for `Cc1cccc2cc3c(N)c(C(=O)N4CCOCC4)sc3nc12`, the “hERG current change (%, negative = inhibition) at 1uM” value stood at 12.6%.

For the compound `CC(C)(C(=O)c1cccnc1)c1cccnc1`, the “hERG current change (%, negative = inhibition) at 1uM” value came out at 9.44%.

With `Cn1c(SCC(=O)NCCc2ccccc2)ncc(C(=O)Nc2ccc(F)cc2)c1=O`, the “hERG current change (%, negative = inhibition) at 1uM” value was 12.5%.

Regarding `CNC(=O)c1csc(-c2ccncc2)n1`, the “hERG current change (%, negative = inhibition) at 1uM” value is 17.9%.

In the case of `Cc1cccc(S(=O)(=O)N2CCn3cccc3C2C)c1` (stereo not shown), the “hERG current change (%, negative = inhibition) at 1uM” value came out at 9.22%.

On to `CCOC(=O)N1CCN(C(=O)COC(=O)CNC(=O)c2ccc(Cl)cc2Cl)CC1`, for which the “hERG current change (%, negative = inhibition) at 1uM” value is given as -0.0258%.

`COc1ccccc1Nc1ncc(-c2cccs2)s1`: the “hERG current change (%, negative = inhibition) at 1uM” value is -5.86%.

`CC(C)OC(=O)C(C)(C)Oc1ccc(C(=O)c2ccc(Cl)cc2)cc1`: the “hERG current change (%, negative = inhibition) at 1uM” value amounted to 2.06%.

Take `COc1ccc(-n2ncc3c2CC(C)(C)CC3NC(=O)c2ccnn2C)cc1` (stereo not shown): the “hERG current change (%, negative = inhibition) at 1uM” value came to 15.3%.

Take `C#CCOCCOCCOCCNc1nc(N2CCN(C(=O)CCCCCCCCCCNC(=O)[C@H]([C@@H](C)CC)n3cc(CCCCCN)nn3)CC2)nc(N2CCN(C(=O)CCCCCCCCCCNC(=O)[C@@H]([C@H](C)O)n3cc(C)nn3)CC2)n1`: the “hERG current change (%, negative = inhibition) at 1uM” value was determined as 1.37%.

For `CCN(CC(=O)Nc1cccc(OC)c1)CC(=O)Nc1ccc(C)cc1Cl`, the “hERG current change (%, negative = inhibition) at 1uM” value is 6.66%.

As for `CCCC(=O)Nc1ncnc2c1ncn2[C@@H]1O[C@@H]2COP(=O)([O-])O[C@H]2[C@H]1OC(=O)CCC.[Na+]`, the “hERG current change (%, negative = inhibition) at 1uM” value is listed as 14.5%.

As for `O=S(=O)(NCC1CCCO1)c1ccc(Cl)cc1` (stereo not shown), the “hERG current change (%, negative = inhibition) at 1uM” value turned out to be 20.6%.

For the compound `CCNC(=O)CCSc1nnc(-c2ccncc2)o1`, the “hERG current change (%, negative = inhibition) at 1uM” value worked out at 14.1%.

Take `COc1ccc(/C=C2\SC(=O)N(CCNC(=O)Cc3coc4cc(OC)ccc34)C2=O)cc1`: the “hERG current change (%, negative = inhibition) at 1uM” value is reported as 13.5%.

As for `CC1CCCCC1NC(=O)c1ccc(NC2=NC3CS(=O)(=O)CC3S2)cc1` (stereo not shown), the “hERG current change (%, negative = inhibition) at 1uM” value was -4.88%.

With `CCCOC(=O)c1ccc(NC(=O)c2cc(Cl)ccc2OC)cc1`, the “hERG current change (%, negative = inhibition) at 1uM” value came to 2.93%.

`CC(C)CCc1noc(CN2CCN(CC(=O)NC(C)C)CC2)n1`: the “hERG current change (%, negative = inhibition) at 1uM” value is -0.271%.

Take `CCC(=O)Nc1nc2n(n1)C(c1ccc(OC)cc1)C=C(c1ccccc1)N2` (stereo not shown): the “hERG current change (%, negative = inhibition) at 1uM” value was found to be 14.8%.

Take `CCCC1CCC(c2nc(-c3cccnc3)no2)CC1` (stereo not shown): the “hERG current change (%, negative = inhibition) at 1uM” value is given as -3.74%.

In the case of `Cc1c(C(=O)O)cccc1-c1ccc(/C=C2\SC(=O)NC2=O)o1`, the “hERG current change (%, negative = inhibition) at 1uM” value worked out at 20.4%.

Regarding `CCN(CC)C(=O)c1cccc(-c2ccc(OC)cc2)c1`, the “hERG current change (%, negative = inhibition) at 1uM” value was -11.2%.

On to `O=C(NC1CCN(C(=O)Nc2ccccc2)CC1)C1CCCCC1`, for which the “hERG current change (%, negative = inhibition) at 1uM” value is reported as 0.726%.

For `COc1cc(CN2CCCCC2)ccc1OCc1ccccc1.O=C(O)C(=O)O`, the “hERG current change (%, negative = inhibition) at 1uM” value is reported as -6.57%.

For `CCc1ccccc1N(CC(=O)NCC1CCCO1)C(=O)CCC(=O)Nc1cc(C)on1` (stereo not shown), the “hERG current change (%, negative = inhibition) at 1uM” value is 7.96%.

On to `CN(CCCCCCCCC(=O)/C=N/O)Cc1ccccc1.Cl`, for which the “hERG current change (%, negative = inhibition) at 1uM” value is on record as -26.8%.

Source of the values: publication PMC4336329 (PLoS ONE, 2015).
